{"source": "the supplement of paper PMC8728848", "assay_in_all_cases": "glycan array binding signal (z-score within array); higher = stronger binding", "conditions_in_all_cases": "glycan notation: IUPAC condensed, linker removed", "key": {"[1]": {"target": "Neu5Ac(a2-3)Gal(b1-4)[Fuc(a1-3)]GlcNAc(b1-3)GalNAc", "outline": "(§1)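 From the Consortium for Functional Glycomics database, 3228 arrays were curated, keeping only those whose protein sequence was available. Binding is given as a within-array Z-score averaged across arrays sharing a protein sequence and across linkers. Negative Z-scores can be read as non-binding.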"}, "[2]": {"target": "Neu5Ac(a2-3)Gal(b1-4)[Fuc(a1-3)]GlcNAc(b1-6)[Gal(b1-3)]GalNAc", "outline": "as §1"}, "[3]": {"target": "Neu5Ac(a2-3)Gal(b1-4)[Fuc(a1-3)]GlcNAc(b1-6)[Neu5Ac(a2-3)Gal(b1-3)]GalNAc", "outline": "as §1"}, "[4]": {"target": "Neu5Ac(a2-3)Gal(b1-4)[Fuc(a1-3)]GlcNAc6S", "outline": "as §1"}, "[5]": {"target": "Neu5Ac(a2-3)Gal6S(b1-4)GlcNAc", "outline": "as §1"}, "[6]": {"target": "Neu5Ac(a2-3)Gal6S(b1-4)[Fuc(a1-3)]GlcNAc", "outline": "as §1"}, "Neu5Ac(a2-3)GalNAc": {"target": "Neu5Ac(a2-3)GalNAc", "outline": "as §1"}, "[7]": {"target": "Neu5Ac(a2-3)GalNAc(b1-4)GlcNAc", "outline": "as §1"}, "[8]": {"target": "Neu5Ac(a2-3)[GalNAc(b1-4)]Gal(b1-4)Glc", "outline": "as §1"}, "[9]": {"target": "Neu5Ac(a2-3)[GalNAc(b1-4)]Gal(b1-4)GlcNAc", "outline": "as §1"}, "[10]": {"target": "Neu5Ac(a2-3)[Neu5Ac(a2-6)]GalNAc", "outline": "as §1"}, "Neu5Ac(a2-6)Gal": {"target": "Neu5Ac(a2-6)Gal", "outline": "as §1"}, "Neu5Ac(a2-6)Gal(b1-4)Glc": {"target": "Neu5Ac(a2-6)Gal(b1-4)Glc", "outline": "as §1"}, "[11]": {"target": "Neu5Ac(a2-6)Gal(b1-4)GlcNAc", "outline": "as §1"}, "[12]": {"target": "Neu5Ac(a2-6)Gal(b1-4)GlcNAc(b1-2)Man(a1-3)Man(b1-4)GlcNAc(b1-4)GlcNAc", "outline": "as §1"}, "[13]": {"target": "Neu5Ac(a2-6)Gal(b1-4)GlcNAc(b1-2)Man(a1-3)[Gal(b1-4)GlcNAc(b1-2)Man(a1-6)]Man(b1-4)GlcNAc(b1-4)GlcNAc", "outline": "as §1"}, "[14]": {"target": "Neu5Ac(a2-6)Gal(b1-4)GlcNAc(b1-2)Man(a1-3)[GlcNAc(b1-2)Man(a1-6)]Man(b1-4)GlcNAc(b1-4)GlcNAc", "outline": "as §1"}, "[15]": {"target": "Neu5Ac(a2-6)Gal(b1-4)GlcNAc(b1-2)Man(a1-3)[GlcNAc(b1-2)Man(b1-4)GlcNAc(b1-2)Man(a1-6)]Man(b1-4)GlcNAc(b1-4)GlcNAc", "outline": "as §1"}, "[16]": {"target": "Neu5Ac(a2-6)Gal(b1-4)GlcNAc(b1-2)Man(a1-3)[Man(a1-6)]Man(b1-4)GlcNAc(b1-4)GlcNAc", "outline": "as §1"}, "[17]": {"target": "Neu5Ac(a2-6)Gal(b1-4)GlcNAc(b1-2)Man(a1-3)[Neu5Ac(a2-6)Gal(b1-4)GlcNAc(b1-2)Man(a1-6)]Man(b1-4)GlcNAc(b1-4)GlcNAc", "outline": "as §1"}, "[18]": {"target": "Neu5Ac(a2-6)Gal(b1-4)GlcNAc(b1-2)Man(a1-6)Man(b1-4)GlcNAc(b1-4)GlcNAc", "outline": "as §1"}, "[19]": {"target": "Neu5Ac(a2-6)Gal(b1-4)GlcNAc(b1-2)Man(a1-6)[Gal(b1-4)GlcNAc(b1-2)Man(a1-3)]Man(b1-4)GlcNAc(b1-4)GlcNAc", "outline": "as §1"}, "[20]": {"target": "Neu5Ac(a2-6)Gal(b1-4)GlcNAc(b1-2)Man(a1-6)[GlcNAc(b1-2)Man(a1-3)]Man(b1-4)GlcNAc(b1-4)GlcNAc", "outline": "as §1"}, "[21]": {"target": "Neu5Ac(a2-6)Gal(b1-4)GlcNAc(b1-2)Man(a1-6)[Man(a1-3)]Man(b1-4)GlcNAc(b1-4)GlcNAc", "outline": "as §1"}, "[22]": {"target": "Neu5Ac(a2-6)Gal(b1-4)GlcNAc(b1-3)Gal(b1-3)GlcNAc", "outline": "as §1"}, "[23]": {"target": "Neu5Ac(a2-6)Gal(b1-4)GlcNAc(b1-3)Gal(b1-4)GlcNAc", "outline": "as §1"}, "[24]": {"target": "Neu5Ac(a2-6)Gal(b1-4)GlcNAc(b1-3)Gal(b1-4)GlcNAc(b1-3)Gal(b1-4)GlcNAc", "outline": "as §1"}, "[25]": {"target": "Neu5Ac(a2-6)Gal(b1-4)GlcNAc(b1-3)Gal(b1-4)[Fuc(a1-3)]GlcNAc(b1-3)Gal(b1-4)[Fuc(a1-3)]GlcNAc", "outline": "as §1"}, "[26]": {"target": "Neu5Ac(a2-6)Gal(b1-4)GlcNAc(b1-3)GalNAc", "outline": "as §1"}, "[27]": {"target": "Neu5Ac(a2-6)Gal(b1-4)GlcNAc6S", "outline": "as §1"}}, "note": "This is one part of the list."}
{"binder": "Neuropilin-2 (Homo sapiens), O60462 (protein) MDMFPLTWVFLALYFSRHQVRGQPDPPCGGRLNSKDAGYITSPGYPQDYPSHQNCEWIVYAPEPNQKIVLNFNPHFEIEKHDCKYDFIEIRDGDSESADLLGKHCGNIAPPTIISSGSMLYIKFTSDYARQGAGFSLRYEIFKTGSEDCSKNFTSPNGTIESPGFPEKYPHNLDCTFTILAKPKMEIILQFLIFDLEHDPLQVGEGDCKYDWLDIWDGIPHVGPLIGKYCGTKTPSELRSSTGILSLTFHTDMAVAKDGFSARYYLVHQEPLENFQCNVPLGMESGRIANEQISASSTYSDGRWTPQQSRLHGDDNGWTPNLDSNKEYLQVDLRFLTMLTAIATQGAISRETQNGYYVKSYKLEVSTNGEDWMVYRHGKNHKVFQANNDATEVVLNKLHAPLLTRFVRIRPQTWHSGIALRLELFGCRVTDAPCSNMLGMLSGLIADSQISASSTQEYLWSPSAARLVSSRSGWFPRIPQAQPGEEWLQVDLGTPKTVKGVIIQGARGGDSITAVEARAFVRKFKVSYSLNGKDWEYIQDPRTQQPKLFEGNMHYDTPDIRRFDPIPAQYVRVYPERWSPAGIGMRLEVLGCDWTDSKPTVETLGPTVKSEETTTPYPTEEEATECGENCSFEDDKDLQLPSGFNCNFDFLEEPCGWMYDHAKWLRTTWASSSSPNDRTFPDDRNFLRLQSDSQREGQYARLISPPVHLPRSPVCMEFQYQATGGRGVALQVVREASQESKLLWVIREDQGGEWKHGRIILPSYDMEYQIVFEGVIGKGRSGEIAIDDIRISTDVPLENCMEPISAFAGENFKVDIPEIHEREGYEDEIDDEYEVDWSNSSSATSGSGAPSTDKEKSWLYTLDPILITIIAMSSLGVLLGATCAGLLLYCTCSYSGLSSRSCTTLENYNFELYDGLKHKVKMNHQKCCSEA", "values": [{"measurement": "glycan array binding signal (z-score)", "setting": "[1]", "result": 1.02}, {"measurement": "glycan array binding signal (z-score)", "setting": "[2]", "result": -0.31}, {"measurement": "glycan array binding signal (z-score)", "setting": "[3]", "result": 2.82}, {"measurement": "glycan array binding signal (z-score)", "setting": "[4]", "result": -0.131}, {"measurement": "glycan array binding signal (z-score)", "setting": "[5]", "result": 0.172}, {"measurement": "glycan array binding signal (z-score)", "setting": "[6]", "result": -0.394}, {"measurement": "glycan array binding signal (z-score)", "setting": "Neu5Ac(a2-3)GalNAc", "result": -0.766}, {"measurement": "glycan array binding signal (z-score)", "setting": "[7]", "result": 0.369}, {"measurement": "glycan array binding signal (z-score)", "setting": "[8]", "result": -0.339}, {"measurement": "glycan array binding signal (z-score)", "setting": "[9]", "result": -0.107}, {"measurement": "glycan array binding signal (z-score)", "setting": "[10]", "result": -0.602}, {"measurement": "glycan array binding signal (z-score)", "setting": "Neu5Ac(a2-6)Gal", "result": -0.513}, {"measurement": "glycan array binding signal (z-score)", "setting": "Neu5Ac(a2-6)Gal(b1-4)Glc", "result": 0.038}, {"measurement": "glycan array binding signal (z-score)", "setting": "[11]", "result": -0.43}, {"measurement": "glycan array binding signal (z-score)", "setting": "[12]", "result": -0.201}, {"measurement": "glycan array binding signal (z-score)", "setting": "[13]", "result": -0.507}, {"measurement": "glycan array binding signal (z-score)", "setting": "[14]", "result": -0.609}, {"measurement": "glycan array binding signal (z-score)", "setting": "[15]", "result": -0.465}, {"measurement": "glycan array binding signal (z-score)", "setting": "[16]", "result": -0.229}, {"measurement": "glycan array binding signal (z-score)", "setting": "[17]", "result": -0.493}, {"measurement": "glycan array binding signal (z-score)", "setting": "[18]", "result": -0.583}, {"measurement": "glycan array binding signal (z-score)", "setting": "[19]", "result": -0.053}, {"measurement": "glycan array binding signal (z-score)", "setting": "[20]", "result": -0.143}, {"measurement": "glycan array binding signal (z-score)", "setting": "[21]", "result": -0.625}, {"measurement": "glycan array binding signal (z-score)", "setting": "[22]", "result": -0.622}, {"measurement": "glycan array binding signal (z-score)", "setting": "[23]", "result": 0.105}, {"measurement": "glycan array binding signal (z-score)", "setting": "[24]", "result": 0.013}, {"measurement": "glycan array binding signal (z-score)", "setting": "[25]", "result": -0.191}, {"measurement": "glycan array binding signal (z-score)", "setting": "[26]", "result": -0.489}, {"measurement": "glycan array binding signal (z-score)", "setting": "[27]", "result": -0.418}]}
